Patent publication US20230365642A1 (published 2023)
Where two headings read alike, the source gives them in different places.

How the values were obtained:
[1] = target: T1, IL2R beta (CD122) (UniProt P14784 27-239); assay: BLI
T1 chain: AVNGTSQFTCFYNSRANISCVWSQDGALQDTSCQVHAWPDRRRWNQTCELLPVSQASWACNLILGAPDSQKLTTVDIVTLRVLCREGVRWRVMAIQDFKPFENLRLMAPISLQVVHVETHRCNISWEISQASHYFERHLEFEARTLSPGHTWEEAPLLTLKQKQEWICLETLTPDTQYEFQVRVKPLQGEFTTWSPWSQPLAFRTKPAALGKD

[2] = target: T2, IL13Rα2 Protein, Human, Recombinant, His Tag (human, UniProt Q14627 27-343); assay: SPR
T2 chain: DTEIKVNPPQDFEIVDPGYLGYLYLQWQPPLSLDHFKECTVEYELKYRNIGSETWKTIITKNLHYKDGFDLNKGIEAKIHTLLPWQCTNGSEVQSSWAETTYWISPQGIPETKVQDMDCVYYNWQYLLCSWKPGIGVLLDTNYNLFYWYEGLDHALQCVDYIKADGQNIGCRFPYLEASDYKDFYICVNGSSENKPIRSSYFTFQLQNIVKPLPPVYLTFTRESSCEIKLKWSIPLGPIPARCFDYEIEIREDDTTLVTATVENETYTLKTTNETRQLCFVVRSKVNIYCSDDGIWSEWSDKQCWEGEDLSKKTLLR

[3] = target: T3, IL13Rα Protein, Human, Recombinant, His Tag (human IL13Rα1) (human, UniProt P78552 22-343); assay: SPR
T3 chain: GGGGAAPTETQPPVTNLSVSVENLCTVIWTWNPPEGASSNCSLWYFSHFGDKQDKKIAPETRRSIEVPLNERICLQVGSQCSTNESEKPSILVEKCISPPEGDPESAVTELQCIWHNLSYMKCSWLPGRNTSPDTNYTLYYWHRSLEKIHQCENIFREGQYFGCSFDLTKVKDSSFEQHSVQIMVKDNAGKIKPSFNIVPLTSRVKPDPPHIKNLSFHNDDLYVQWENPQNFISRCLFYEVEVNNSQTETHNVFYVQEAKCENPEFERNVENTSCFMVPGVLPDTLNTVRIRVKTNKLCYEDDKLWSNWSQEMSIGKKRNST

[4] = target: T2, IL13Rα2 Protein, Human, Recombinant, …; assay: SPR
[5] = target: T3, IL13Rα Protein, Human, Recombinant, His …; assay: SPR
[6] = target: T2, IL13Rα2 Protein, Human, Recombinant, …; assay: ELISA
[7] = target: T4, IL13Rα2 Protein, Mouse, Recombinant, His Tag (mouse, UniProt O88786 22-334); assay: ELISA
T4 chain: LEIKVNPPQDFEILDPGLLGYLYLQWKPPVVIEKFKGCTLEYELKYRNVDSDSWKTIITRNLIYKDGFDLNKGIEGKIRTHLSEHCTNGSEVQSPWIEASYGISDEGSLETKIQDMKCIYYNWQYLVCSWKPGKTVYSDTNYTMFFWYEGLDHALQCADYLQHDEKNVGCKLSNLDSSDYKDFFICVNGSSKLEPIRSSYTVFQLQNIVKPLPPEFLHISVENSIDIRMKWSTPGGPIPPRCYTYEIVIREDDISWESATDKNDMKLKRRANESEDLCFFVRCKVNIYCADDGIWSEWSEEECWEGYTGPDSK

[8] = target: T1, IL2R beta (CD122); assay: BLI Octet

B1: MDNA11 (3rd Gen.) (protein)
chain: MYRMQLLSCIALSLALVTNSAPTSSSTKKTQLQLEHLLLDLQMILNGINNYKNPKLTRMLTAKFYMPKKATELKHLQCLEEALKPLEEVLNLAQSKNFHFDPRDVVSNINVFVLELKGSETTFMCEYADETATIVEFLNRWITFSQSIISTLTGGGGSGGGGSGGGGS[about 600 residues not listed]
Kd [1]: 6.6 nM

B2: Human recombinant Fc-IL13 (Control) (Fc fusion)
chain: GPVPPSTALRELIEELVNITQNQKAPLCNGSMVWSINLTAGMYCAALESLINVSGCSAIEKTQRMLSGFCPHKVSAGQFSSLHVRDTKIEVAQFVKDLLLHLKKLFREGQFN
Kd [2]: 0.69 nM | Kd [3]: 263 nM | Kd [4]: 0.69 nM | Kd [5]: 263 nM | EC50 [6]: 0.73 nM | EC50 [7]: 1.92 nM

B3: MDNA11 (protein)
chain: MYRMQLLSCIALSLALVTNSAPTSSSTKKTQLQLEHLLLDLQMILNGINNYKNPKLTRMLTAKFYMPKKATELKHLQCLEEALKPLEEVLNLAQSKNFHFDPRDVVSNINVFVLELKGSETTFMCEYADETATIVEFLNRWITFSQSIISTLTGGGGSGGGGSGGGGS[about 600 residues not listed]
Kd [8]: 6.6 nM

B4: Fc-MDNA413 (1:2) (Fc fusion)
chain: [human IgG1 Fc with changes not listed]GGGSGGGGSGGGGSPGPVPPSTAVRALIEELINITQNQKAPLCNGSMVWSINRTAGMYCAALESLINVSGCSAIEKTQDMLSGFCPHKVSAGQFSSLHVRSSKIEVAQFVKDLLFHLRTLFREGQFN
Kd [2]: 30 nM
